# The supplement of paper PMC10681739
# Over roughly 2,700 sequences, “arbitrary fluorescence units” has its median near 4,100; the highest 2% begin near 54,000. Some of the results follow.
# Biological target: T1, ETS1 (UniProt P14921)
# T1 sequence: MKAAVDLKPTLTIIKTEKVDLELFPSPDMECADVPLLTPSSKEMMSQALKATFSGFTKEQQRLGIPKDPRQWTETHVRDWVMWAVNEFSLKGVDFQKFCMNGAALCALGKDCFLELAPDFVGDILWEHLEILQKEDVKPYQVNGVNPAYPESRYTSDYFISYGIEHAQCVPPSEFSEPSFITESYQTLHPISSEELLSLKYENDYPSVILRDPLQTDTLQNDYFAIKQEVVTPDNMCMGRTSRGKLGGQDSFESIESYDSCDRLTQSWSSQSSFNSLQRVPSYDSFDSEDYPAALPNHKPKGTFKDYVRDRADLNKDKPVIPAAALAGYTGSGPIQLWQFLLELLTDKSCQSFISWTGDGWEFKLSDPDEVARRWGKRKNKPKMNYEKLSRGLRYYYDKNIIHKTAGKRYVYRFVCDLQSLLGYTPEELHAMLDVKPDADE
# Test: ETS1 binding intensity (PBM fluorescence) (arbitrary fluorescence units); higher = stronger binding
# Settings: ETS1 concentration 10 nM
# Method: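 gcPBM on wild-type 36-bp genomic probes with two neighbouring ETS1 sites (4-24 bp apart). Recombinant human ETS1 (10 nM) was detected with anti-ETS1 antibody fluorescence. Values are medians over 3 replicate spots. The probes sit in constant array flanks that are not printed.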
row,Sequence,ETS1 binding intensity
1,CGTAAGCCGGAAGTGCAAACTGCTCTTCCTGTCTCC,26300
2,CGAACTTCCTGCCTCAGCCTCCTGAGCTTCCTGAGT,50100
3,CGCGGTGTCCGGGAAGTGACTCTTCCTGGCAGAGGG,2620
4,TGCTATACCAGGAAACCTCTGTTTCCTGTTCTAGGG,5270
5,CAGAACTCGCTTTTCCGGCCTTCCTGGGGTGGGCTG,7910
6,CGCAGAAACTTCCCGCTCCGACAGGAAACAGCACTT,3450
7,CCGGGGTTCCGGCGCCGCGCGTTTTGGTTCCGGAGT,2740
8,GGCAGAGGCAACAGGAAGTGGGAAATGAGTCCCAGG,16000
9,GTCCCGGCCACCGGAAGCCCGGAACGGCCACATGGT,9950
10,AGACAATCACATCCCCACTGACTTCCTGCCTTTCCT,7280
11,GGGCACTTCCTGCCCCAAACAATGACAGGAAGGTCC,50100
12,GGCACACGGAAGTGAGGAGCTGGGTTTCCTCCCATC,2390
13,AGTGGTTAGGAAATTGAGAGGCATTTCCGATGAAGA,443
14,GGGAGAAGTGGCTTCCTGTGGGGAAATGCCCAGAGC,12900
15,CGAGGCGGTCGCGGAAGTAGAGGAAGCCTTCGCGGT,686
16,CGGGCACTTCCGGCGCGAACCGCTACTTCCGGTGCG,95900
17,TCTGCACAGGATGAGTGTTCGGAGGGGAAGTGACTG,296
18,GCGAAGCAGGATGCCCTCAACCCACATCCGGCAAAA,6730
19,AGTGTGGAGGAAGTGACACCAAAGAGGAAATGCGGG,2260
20,TGCGGTTCACTTCCTTTGGGACAGGAAGTCTTCCCT,10300
21,ACTTTTCATACTTCCTGCTTGAGGAAGCTGCTACTG,16500
22,CTCATGGCAACAGGAACTATTTCCTTTGGCTTATGA,1800
